# In PubChem BioAssay AID881 (National Center for Advancing Translational Sciences (NCATS), 2007):
# “And” between values parts separate entries of the source, which are not always exact repeats. Identical values can stand only once. Among all 110,000 compounds or so, about 610 (0.55%) were called active. This list was built around the results that the source calls inconclusive (neither active nor inactive); the mix of calls is not that of the screen. Calls follow the shape of the dose curve; as a rule, active = well fitted inhibition curve with a large enough effect; inconclusive = small, poorly fitted or top-dose-only effect; inactive = no such curve, though single readings can be large or run the other way. Where the call is inconclusive, the potency comes from a doubtful curve fit.
# Target: Polyunsaturated fatty acid lipoxygenase ALOX15B (Homo sapiens) (UniProt O15296)
# Test: qHTS Assay for Inhibitors of 15-hLO-2 (15-human lipoxygenase 2); also: nearly all actives have a fitted effect of over 60% in size
# Conditions: purified 15hLO-2, xylenol orange hydroperoxide absorbance; activity change, negative = inhibition: at 57.1 µM (top of the series) unless noted
# Summary of the method: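 Enzyme 50 nM, AA 45 uM, 25 mM Hepes pH 7.5 + 0.01% Triton X-100; cpd preinc 15 min RT, rxn 90 min RT; stop/detect with 200 uM XO + 300 uM Fe(II) in 50 mM H2SO4, 30 min; A573/A405.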
# % is scaled to controls: 0 for no effect and ±100 for the full control effect; potency is read from the fitted curve at half-maximal effect; tags tell the direction and shape of the fitted curve.
# Sequence of UniProt O15296 (O15296 whole entry, looked up): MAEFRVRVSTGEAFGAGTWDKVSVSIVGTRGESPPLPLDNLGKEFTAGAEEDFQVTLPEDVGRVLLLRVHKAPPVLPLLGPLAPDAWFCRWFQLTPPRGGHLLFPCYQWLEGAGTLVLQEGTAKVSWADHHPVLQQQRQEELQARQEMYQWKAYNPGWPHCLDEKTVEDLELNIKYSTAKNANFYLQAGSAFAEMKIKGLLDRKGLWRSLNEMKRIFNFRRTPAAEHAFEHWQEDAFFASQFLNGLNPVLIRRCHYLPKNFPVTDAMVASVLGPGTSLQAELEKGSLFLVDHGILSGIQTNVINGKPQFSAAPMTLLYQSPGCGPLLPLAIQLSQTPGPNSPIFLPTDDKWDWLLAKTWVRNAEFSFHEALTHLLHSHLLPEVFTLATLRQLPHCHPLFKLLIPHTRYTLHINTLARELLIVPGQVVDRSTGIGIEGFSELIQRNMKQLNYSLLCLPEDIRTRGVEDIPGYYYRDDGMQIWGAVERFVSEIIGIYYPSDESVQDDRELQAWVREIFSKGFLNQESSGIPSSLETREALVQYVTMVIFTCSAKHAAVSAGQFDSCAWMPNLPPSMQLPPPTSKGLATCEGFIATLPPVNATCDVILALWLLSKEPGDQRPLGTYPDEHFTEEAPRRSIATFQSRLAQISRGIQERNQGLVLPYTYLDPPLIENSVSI
Structure (SMILES),Potency,"activity change, negative = inhibition"
Oc1cc2c(cc1O)[C@H]1c3ccc(O)c(O)c3OC[C@@]1(O)C2,"inconclusive: 2.51 µM [inhibitor, full curve] and inconclusive: 5.01 µM [inhibitor, full curve]",
CCC(Sc1ncccc1C(=O)OCCN1CCCC1=O)C(=O)NCc1ccco1 (stereo not given),"inconclusive: 1.58 µM [inhibitor, single point]",
CC(C)NC(=O)CN1C(=O)NC(CCc2ccccc2)C1=O (stereo not given),"inconclusive: 5.01 µM [inhibitor, single point]",
Cc1cc(C)n(C(C[N+](=O)[O-])c2ccc(Cl)cc2)n1 (stereo not given),"inconclusive: 10 µM [inhibitor, partial curve]",
COC(=O)c1ccc(C#CC(NP(=O)(c2ccccc2)c2ccccc2)c2ccccc2)cc1 (stereo not given),,inactive: 20.1%
OC[C@@H]1[C@@H](c2ccc(Cl)cc2)C(c2ccccc2)=NN1c1ccccc1,"inconclusive: 35.5 µM [inhibitor, partial curve]",
O=C(CNCC1CCCO1)Nc1ccc(N2CCCCCC2)cc1 (stereo not given),,inactive: 27%
CCOc1cc(/C=C2\C(=O)N(c3ccc(C(N)=O)cc3)N=C2C)ccc1OC(=O)c1cccs1,active: 5.01 µM,
Cc1ccc(C)c(-n2c(-c3ccc4c(c3)OCO4)n[nH]c2=S)c1,"inconclusive: 20 µM [inhibitor, single point]",
CN1c2cccc3cccc(c23)N(C)C1c1cccs1,"inconclusive: 10 µM [inhibitor, partial curve]",
CCOC(=O)c1c(-c2ccc(C)o2)csc1NC(=S)NC(=O)c1ccccc1Br,"inconclusive: 31.6 µM [inhibitor, single point]",
CCCc1cc(=O)[nH]c(SCc2cccc(C)c2)n1,,inactive: -3.73%
O=C1NCCCC2c3cc(O)c4ccccc4c3OC12N1CCCCC1 (stereo not given),"inconclusive: 10 µM [inhibitor, partial curve, poor fit]",
COC(=O)c1ccc(N2C(=O)CC(N(C)CCc3ccc(OC)c(OC)c3)C2=O)cc1 (stereo not given),,inactive: -14.9%
O=C(COC(=O)c1cc(-c2cccs2)nc2ccccc12)NCc1ccco1,"inconclusive: 39.8 µM [inhibitor, single point]",
Cn1c(=O)c(C(=S)NC(=O)C2CC2)c(N)n(Cc2ccccc2)c1=O,"inconclusive: 39.8 µM [inhibitor, single point]",
CCSc1nnc(-c2cccc(S(=O)(=O)N(CC)CC)c2)n1Cc1ccccc1,,inactive: -5.76%
COc1ccc(C2=CC(c3cc(OC)c(OC)c(OC)c3)NC(=S)N2)cc1 (stereo not given),"inconclusive: 20 µM [inhibitor, partial curve]",
Cc1ccc(CNC(=O)Cc2csc(Nc3nc(=S)[nH]c4ccccc34)n2)cc1,"inconclusive: 15.8 µM [inhibitor, partial curve]",
Cc1nn(-c2cccc(Cl)c2)c2nc(-c3ccco3)cc(C(=O)O)c12,"inconclusive: 12.6 µM [inhibitor, partial curve]",
COC(=O)CN(C)C1CC(=O)N(c2ccc(Cl)cc2)C1=O (stereo not given),"inconclusive: 12.6 µM [inhibitor, partial curve]",
COc1ccccc1-c1nc(NCc2cnc(C)cn2)c2ccccc2n1,"inconclusive: 39.8 µM [inhibitor, single point]",
Cc1ccc(C(C)C)c(OCCNC(=S)Nc2cccc3ccccc23)c1,"inconclusive: 15.8 µM [inhibitor, single point]",
O=C(CSc1nnc(SCc2cccc3ccccc23)s1)c1ccc2c(c1)OCO2,"inconclusive: 25.1 µM [inhibitor, partial curve]",

Structure (SMILES),Potency,"activity change, negative = inhibition"
CCC(C)(C(=O)NC1CCCC1)N(Cc1ccco1)C(=O)c1ccccn1 (stereo not given),,inactive: -4.59%
O=C(Nc1cccc(F)c1)N1CC2(CCN(C(=O)c3cnccn3)CC2)C1,"inconclusive: 15.8 µM [inhibitor, partial curve]",
Cc1cc(/C=C2\SC(=S)NC2=O)c(C)n1C1CC1,"inconclusive: 12.6 µM [inhibitor, partial curve]",
Oc1ccccc1C(Sc1nc2ccccc2s1)Sc1nc2ccccc2s1,"inconclusive: 3.16 µM [inhibitor, partial curve]",
CCCOC(=O)c1c(N)sc2c1CCC2,"inconclusive: 10 µM [inhibitor, partial curve]",
CN1CCN(c2ncc3nc(-c4cccs4)c(=O)n(C[C@H]4CCCO4)c3n2)CC1,,inactive: 4.05%
O=C(O)/C=C\C(=O)Nc1ccccc1C#Cc1ccccc1,"inconclusive: 12.6 µM [inhibitor, single point]",
COc1cccc(CNC(=O)Nc2cccs2)c1,"inconclusive: 31.6 µM [inhibitor, single point]",
O=S(=O)(c1ccccc1)N1CCN(c2nc3ccccc3s2)CC1,,inactive: -1.44%
CCc1ccc2c(CN3CCc4ccccc43)cc(=O)oc2c1,"inconclusive: 25.1 µM [inhibitor, single point]",
Cc1cccc(-n2ncc(C#N)c2-n2cccc2)c1,,inactive: -4.9%
COc1ccccc1-c1ccc2ncnc(N3CCOCC3)c2c1,,inactive: 30.8%
C=CCN1CCc2c(cc(O)c(O)c2Cl)[C@H](c2ccccc2)C1,"inconclusive: 12.6 µM [inhibitor, partial curve]",
Cc1cc(NO)nc(-c2ccc(Br)cc2)n1,"inconclusive: 31.6 µM [inhibitor, partial curve]",
N#Cc1ccc(CN2CC[C@@]3(CCCN(C(=O)c4ccco4)C3)C2)cc1,,inactive: 6.91%
Cc1cc2c(cc(C(=O)NCc3cccnc3)n2Cc2ccc(Cl)cc2)o1,,inactive: 9.65%
Cc1ccccc1-c1cc(C(=O)Nc2nc3c(s2)CCCC3)c2ccccc2n1,,inactive: 0.0854%
CCOc1cc(C(=O)CSc2nnc(CNc3ccc(Cl)cc3)o2)ccc1NC(=O)CC,"inconclusive: 5.01 µM [inhibitor, full curve]",
Cc1cnc(CNc2ccnc(-c3ccccc3Cl)n2)cn1,,inactive: -3.43%
Cc1cc(C)n(-c2ccc(C(=O)OCC(=O)c3ccc(Br)s3)cc2)n1,"inconclusive: 15.8 µM [inhibitor, partial curve]",
O=S(=O)(O)c1ccccc1,,inactive: 1.55%
O=C1CCCC2=C1C(c1ccc(Cl)cc1)C1C(=O)c3ccccc3C1=N2 (stereo not given),"inconclusive: 12.6 µM [inhibitor, partial curve]",
O=C(O)c1cn(-c2ccc(F)cc2)c2cc(N3CCNCC3)c(F)cc2c1=O,,inactive: 9.92%
CCc1cc(-c2n[nH]c(=S)n2-c2cccc(C)c2)cs1,"inconclusive: 12.6 µM [inhibitor, partial curve]",

Structure (SMILES),Potency,"activity change, negative = inhibition"
CCN(CC)c1ccc(/C=N/NC(=S)NCc2ccccc2)cc1,"inconclusive: 20 µM [inhibitor, partial curve]",
CCOc1ccccc1-n1cnc2cc(C(=O)NCc3ccco3)ccc21,"inconclusive: 0.199 µM [inhibitor, full curve]",
COC(=O)[C@@H](NC(=O)Nc1ccc(OC(F)(F)F)cc1)C(C)C,,inactive: -3.24%
Cc1cc(C)cc(NS(=O)(=O)c2ccc(Oc3ncc(C(F)(F)F)cc3Cl)cc2)c1,"inconclusive: 3.98 µM [inhibitor, single point]",
CCN=c1scc(-c2ccc3c(c2)NC(=O)CO3)n1N=C1CCCC1,"inconclusive: 25.1 µM [inhibitor, single point]",
O=C(CN1C(=O)c2ccccc2S1(=O)=O)NCc1ccccn1,,inactive: 7.92%
CCc1nnc(NC(=O)CSc2nnc(-c3ccoc3C)n2-c2ccc(C)cc2)s1,,inactive: -6.17%
C/C(CC(=O)Nc1cc(Cl)ccc1Cl)=N\NC(N)=S,"inconclusive: 12.6 µM [inhibitor, partial curve]",
CC(C)C(=O)Nc1nc2cc3c(cc2s1)OCO3,"inconclusive: 31.6 µM [inhibitor, single point]",
CCOC(=O)c1c(-c2ccc(C)o2)csc1NC(=O)CSc1nnc(C)s1,"inconclusive: 31.6 µM [inhibitor, single point]",
Fc1cc(Br)ccc1NC(=S)NCCc1ccccc1,"inconclusive: 20 µM [inhibitor, partial curve]",
CCOC(=O)c1cc2c(C)n(-c3ccc(OCC)cc3)c(C)c2ccc1=O,"inconclusive: 15.8 µM [inhibitor, partial curve]",
N#Cc1c(NC(=O)COC(=O)C2CC3C=CC2C3)oc(-c2ccccc2)c1-c1ccccc1 (stereo not given),"inconclusive: 31.6 µM [inhibitor, single point]",
Cc1ccc(-c2ccc(CCC(=O)O)n2-c2cccc(O)c2)cc1,"inconclusive: 20 µM [inhibitor, partial curve, poor fit]",
OCCOCCNc1ncnc2c1cnn2-c1ccccc1,"inconclusive: 15.8 µM [inhibitor, partial curve]",
CCCCn1nc2cc(C(=O)NCC3CC3)ccc2c1OCC,"inconclusive: 0.199 µM [inhibitor, full curve, poor fit]",
N#CC1=C(N)N=C(SCc2cccc3ccccc23)C(C(N)=O)C12CCCCC2 (stereo not given),"inconclusive: 39.8 µM [inhibitor, single point]",
COC(=O)CS(=O)(=O)c1nnc([C@H](Cc2ccccc2)NC(=O)OC(C)(C)C)o1,"inconclusive: 7.94 µM [inhibitor, partial curve]",
COc1ccc(-c2ccnc3nc(-n4cccc4)nn23)cc1,"inconclusive: 31.6 µM [inhibitor, single point]",
C=CCN(CC=C)S(=O)(=O)c1ccc(NC(=S)NC(=O)c2ccco2)cc1,"inconclusive: 25.1 µM [inhibitor, single point]",
Cc1ccc(C(=O)Nc2ccccc2N2CCN(C(=O)C(C)C)CC2)cc1,,inactive: -1.69%
O=c1cc(-c2ccccc2)oc2c(O)c(O)ccc12,"inconclusive: 15.8 µM [inhibitor, partial curve]",
